# Where “and” joins values, the source holds several entries; their conditions need not be identical. Equal values may be shown once. For part of these data: “Side channel” marks fits to a control or component signal instead of the main read-out. Calls of active or inactive are those of the source. Entries that show only a call come without a potency. Unless noted, the call rests on the fitted dose curve; in most records, active means well fitted curve in the direction sought with a large enough effect; inconclusive means small, poorly fitted or top-dose-only effect, or another doubt; inactive means no such curve, though single readings can be large; an effect the other way counts as inactive or inconclusive.
# Experiments:
# [1] = Cell Viability - Hek293 (AID 427;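 active means compounds whose dose-response curve shows a full or clear partial loss of cell viability, called from curve shape rather than a numeric limit; inconclusive means weak partial curves or an effect only at the top dose; inactive means no dose-dependent loss of viability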;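 further: cells exposed to compound for 40 hours at 37 °C before reading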); conditions: qHTS
# Summary of the method: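 HEK293 cells in complete medium were exposed to compound for 40 hr at 37 °C, then cellular ATP was read by CellTiter-Glo luminescence. Data were normalized to DMSO (basal) and 100 uM tamoxifen (100% inhibition), and AC50 came from Hill fits.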
# [2] = MultiTox-Fluor Cytotoxicity Assay - LYMP1-001 - Live Cells (AID 947); conditions: LYMP1-001 lymphoblastoid cells, live-cell protease fluorescence viability; series mostly up to 92.2 µM
# [3] = MultiTox-Fluor Cytotoxicity Assay - LYMP1-002 - Dead Cells (AID 960); conditions: LYMP1-002 lymphoblastoid cells, dead-cell protease fluorescence; cytotoxicity (dead cells): at 46.1 µM (top of the series); further: nearly all actives have a fitted effect of over 60% in size
# Summary of the method: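 Dead-cell fluorescence (Ex/Em 485/520) after 16 h compound exposure at 37 C of LYMP1-002 lymphoblastoid cells in complete medium; AC50 by Hill equation, with data scaled between DMSO and 15 uM tetraoctylammonium bromide.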
# [4] = Cell Viability - LYMP2-005 (AID 967); conditions: LYMP2-005 lymphoblastoid cell viability; series mostly up to 92.2 µM
# Summary of the method: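 Steps: seed 2500 LYMP2-005 cells/well, incubate 5 h at 37 C, add compound, incubate 24 h at 37 C, add CellTiter-Glo, wait 30 min at RT, read luminescence. Concentration-response data fitted to Hill equation for AC50.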
# [5] = target: Estrogen receptor (Homo sapiens) (UniProt P03372); test: qHTS assay for small molecule antagonists of estrogen receptor alpha signaling (AID 588513; active means well fitted curve in the direction sought with a large enough effect in the signal ratio, with a control signal flat, not every such curve was filed as active; inconclusive means small, poorly fitted or top-dose-only effect, or effect the other way, or a change in a side signal; inactive means no such curve, though single readings can be large or run the other way; the % refers to the signal ratio); conditions: ER-alpha-UAS-bla HEK293, beta-lactamase ratio, antagonist mode; activity, negative = inhibition: at 76.9 µM (top of the series)
# Sequence of UniProt P03372 (P03372 whole entry, looked up): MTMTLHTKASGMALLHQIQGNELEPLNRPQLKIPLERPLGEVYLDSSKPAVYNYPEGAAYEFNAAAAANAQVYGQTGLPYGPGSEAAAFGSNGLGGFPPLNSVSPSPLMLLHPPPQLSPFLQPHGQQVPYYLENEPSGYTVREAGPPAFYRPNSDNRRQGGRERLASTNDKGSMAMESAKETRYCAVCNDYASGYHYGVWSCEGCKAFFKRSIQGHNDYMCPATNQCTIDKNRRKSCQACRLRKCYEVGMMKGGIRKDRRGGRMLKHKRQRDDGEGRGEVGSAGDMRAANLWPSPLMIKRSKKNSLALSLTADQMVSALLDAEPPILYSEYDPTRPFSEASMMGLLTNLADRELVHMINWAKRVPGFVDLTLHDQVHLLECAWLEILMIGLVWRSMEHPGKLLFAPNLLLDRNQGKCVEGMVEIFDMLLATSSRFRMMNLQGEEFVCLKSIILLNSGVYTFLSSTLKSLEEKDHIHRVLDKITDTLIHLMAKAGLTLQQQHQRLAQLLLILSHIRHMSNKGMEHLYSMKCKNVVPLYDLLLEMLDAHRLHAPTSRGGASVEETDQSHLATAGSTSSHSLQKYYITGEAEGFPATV
# Summary of the method: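 Beta-lactamase reporter, antagonist mode, HEK 293 GripTite cells; 0.5nM E2 stimulus, 18 h, 37 C; CCF4 dye 2 h RT; fluorescence. IC50 and efficacy from Hill fits, normalized to E2 and DMSO.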
# [6] = target: Estrogen receptor (Homo sapiens) (UniProt P03372); test: qHTS assay for small molecule agonists of estrogen receptor alpha signaling (AID 588514; calls by dose curve; further: nearly all actives have a fitted effect of over 70% in size); conditions: ER-alpha-UAS-bla HEK293, beta-lactamase ratio, 18 h; activation: at 76.8 µM (top of the series), percent of full estradiol response, vehicle zero unless noted
# Summary of the method: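 EC50 and efficacy came from Hill fits of beta-lactamase reporter signal (CCF4 dye, 2 h at room temperature) scaled between DMSO and 20 nM 17-beta-estradiol. Agonist mode: HEK293 ER-alpha-UAS-bla cells in charcoal/dextran-stripped serum medium, 18 h compound exposure at 37 C.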
# [7] = target: Glucocorticoid receptor (Homo sapiens) (UniProt P04150); test: qHTS assay for small molecule antagonists of glucocorticoid receptor signaling (AID 588533; active means well fitted inhibition curve with a large enough effect in the signal ratio, with a control signal flat, not every such curve was filed as active; inconclusive means small, poorly fitted or top-dose-only effect, or effect the other way, or a change in a side signal; the % refers to the signal ratio;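 further: cells stimulated with 2 nM dexamethasone as agonist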); conditions: HeLa MMTV-bla, GRE beta-lactamase ratio, antagonist mode, 18 h; activity change, negative = inhibition: at 76.8 µM (top of the series)
# [8] = target: Peroxisome proliferator-activated receptor delta (Homo sapiens) (UniProt Q03181); test: qHTS assay for small molecule antagonists of peroxisome proliferator-activated receptor delta signaling (AID 588535; active means well fitted inhibition curve with a large enough effect in the signal ratio, with a control signal flat, not every such curve was filed as active; inconclusive means small, poorly fitted or top-dose-only effect, or effect the other way, or a change in a side signal; inactive means no such curve, though single readings can be large or run the other way; the % refers to the signal ratio); conditions: HEK293T PPARd-UAS-bla, beta-lactamase FRET ratio, 18 h; activity change, negative = inhibition: at 76.7 µM (top of the series)
# Sequence of UniProt Q03181 (Q03181 whole entry, looked up): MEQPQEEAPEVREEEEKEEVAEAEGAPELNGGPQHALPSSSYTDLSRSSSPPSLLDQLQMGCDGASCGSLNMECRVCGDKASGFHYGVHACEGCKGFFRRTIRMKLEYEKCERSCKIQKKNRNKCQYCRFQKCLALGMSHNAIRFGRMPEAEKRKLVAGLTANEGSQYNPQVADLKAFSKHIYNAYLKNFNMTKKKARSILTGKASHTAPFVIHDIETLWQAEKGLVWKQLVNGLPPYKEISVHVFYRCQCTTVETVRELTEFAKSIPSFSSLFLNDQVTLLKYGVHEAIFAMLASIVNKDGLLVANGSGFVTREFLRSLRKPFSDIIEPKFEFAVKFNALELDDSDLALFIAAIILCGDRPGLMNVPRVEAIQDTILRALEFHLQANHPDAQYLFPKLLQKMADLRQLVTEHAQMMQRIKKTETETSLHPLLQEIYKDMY
# Summary of the method: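 Fluorescence from CCF4-loaded GeneBLAzer PPAR-delta-UAS-bla HEK293T cells (2 hrs RT loading) quantified reporter inhibition after an 18 hr, 37 C compound exposure across a titration.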
# [9] = target: Peroxisome proliferator-activated receptor gamma (Homo sapiens) (UniProt P37231); test: qHTS assay for small molecule agonists of peroxisome proliferator-activated receptor gamma signaling (AID 588536; active means well fitted curve in the direction sought with a large enough effect in the signal ratio, with a control signal flat, not every such curve was filed as active; inconclusive means small, poorly fitted or top-dose-only effect, or effect the other way, or a change in a side signal; inactive means no such curve, though single readings can be large or run the other way; the % refers to the signal ratio); conditions: HEK293 PPARg-UAS-bla, beta-lactamase ratio, 16 h; activation: at 76.7 µM (top of the series), percent of rosiglitazone response, DMSO as zero
# Summary of the method: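 Cells were plated and held 6–6.5 h at 37 C, then compounds were added as a titration series. After a further 16 h, CCF4 dye was loaded for 2 h at room temperature and emission at 460/530 nm recorded.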
# [10] = target: Peroxisome proliferator-activated receptor gamma (Homo sapiens) (UniProt P37231); test: qHTS assay for small molecule antagonists of peroxisome proliferator-activated receptor gamma signaling (AID 588537; active means well fitted inhibition curve with a large enough effect in the signal ratio, with a control signal flat, not every such curve was filed as active; inconclusive means small, poorly fitted or top-dose-only effect, or effect the other way, or a change in a side signal; the % refers to the signal ratio;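 further: reporter cells co-stimulated with 50 nM rosiglitazone agonist during compound treatment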); conditions: HEK293 PPARg-UAS-bla, beta-lactamase ratio, antagonist mode; activity, negative = inhibition: at 76.8 µM (top of the series)
# Summary of the method: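 Fluorescence at 460 and 530 nm (405 nm excitation) reported beta-lactamase cleavage of CCF4 after 2 h room-temperature loading. HEK293 reporter cells in 1% charcoal/dextran-treated FBS had received compound and rosiglitazone for 16 h.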
# [11] = target: Retinoic acid receptor RXR-alpha (Homo sapiens) (UniProt P19793); test: qHTS assay for small molecule agonists of retinoid X receptor alpha signaling (AID 588544; calls by dose curve); conditions: HEK293T RXRa-UAS-bla, beta-lactamase reporter, 18 h; activation: at 76.7 µM (top of the series)
# Sequence of UniProt P19793 (P19793 whole entry, looked up): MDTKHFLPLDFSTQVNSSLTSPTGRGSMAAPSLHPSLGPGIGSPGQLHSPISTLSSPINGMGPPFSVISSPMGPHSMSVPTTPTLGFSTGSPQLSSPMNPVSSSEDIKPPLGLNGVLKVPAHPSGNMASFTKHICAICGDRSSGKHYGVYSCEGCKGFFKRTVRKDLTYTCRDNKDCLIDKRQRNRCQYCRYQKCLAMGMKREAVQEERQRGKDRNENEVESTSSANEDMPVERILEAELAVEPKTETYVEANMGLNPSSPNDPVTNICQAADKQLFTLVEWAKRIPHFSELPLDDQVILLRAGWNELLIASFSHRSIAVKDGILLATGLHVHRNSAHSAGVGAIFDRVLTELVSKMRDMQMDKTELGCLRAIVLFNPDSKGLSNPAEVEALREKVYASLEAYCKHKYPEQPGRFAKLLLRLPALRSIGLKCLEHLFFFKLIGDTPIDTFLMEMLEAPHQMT
# [12] = target: Thyroid hormone receptor beta (Homo sapiens) (UniProt P10828); test: qHTS assay for small molecule agonists of thyroid hormone receptor beta signaling (AID 588545; calls by dose curve); conditions: TR-UAS-bla GripTite HEK 293, beta-lactamase ratio, agonist mode, 18 h; activation: at 76.7 µM, percent of T3 response, DMSO as zero
# Sequence of UniProt P10828 (P10828 whole entry, looked up): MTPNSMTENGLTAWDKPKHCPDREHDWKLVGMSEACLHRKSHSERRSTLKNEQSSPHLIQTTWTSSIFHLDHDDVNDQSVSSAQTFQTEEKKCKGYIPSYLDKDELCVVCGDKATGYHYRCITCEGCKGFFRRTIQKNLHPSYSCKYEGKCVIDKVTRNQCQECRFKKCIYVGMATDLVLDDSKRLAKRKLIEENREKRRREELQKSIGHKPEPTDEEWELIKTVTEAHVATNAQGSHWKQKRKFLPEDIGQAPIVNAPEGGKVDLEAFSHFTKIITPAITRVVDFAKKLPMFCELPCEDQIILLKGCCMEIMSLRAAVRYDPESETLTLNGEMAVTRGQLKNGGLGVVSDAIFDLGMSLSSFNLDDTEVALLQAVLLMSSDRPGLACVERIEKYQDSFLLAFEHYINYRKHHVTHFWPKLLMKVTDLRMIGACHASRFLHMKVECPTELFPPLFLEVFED
# Summary of the method: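 Beta-lactamase reporter activity under TR response element control is measured in HEK 293 cells after 18 hrs compound exposure. Signal is ratiometric CCF4 fluorescence, 460/530 nm.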
# [13] = target: Retinoic acid receptor RXR-alpha (Homo sapiens) (UniProt P19793); test: qHTS assay for small molecule antagonists of retinoid X receptor alpha signaling (AID 588546; active means well fitted inhibition curve with a large enough effect in the signal ratio, with a control signal flat, not every such curve was filed as active; inconclusive means small, poorly fitted or top-dose-only effect, or effect the other way, or a change in a side signal; inactive means no such curve, though single readings can be large or run the other way; the % refers to the signal ratio;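 on max response: cells stimulated with 9-cis-retinoic acid as agonist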); conditions: HEK293T RXRa-UAS-bla, beta-lactamase ratio, antagonist mode
# Summary of the method: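 Beta-lactamase reporter inhibition, read as CCF4 fluorescence ratio (ex 405, em 460/530 nm) after 2 h at RT. HEK293T UAS-bla cells, 2500/well, were stimulated with 9-cis-RA at 500 or 100 nM final alongside test compound for 18 h at 37 C.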
# [14] = target: Thyroid hormone receptor beta (Homo sapiens) (UniProt P10828); test: qHTS assay for small molecule antagonists of thyroid hormone receptor beta signaling (AID 588547; active means well fitted inhibition curve with a large enough effect in the signal ratio, with a control signal flat, not every such curve was filed as active; inconclusive means small, poorly fitted or top-dose-only effect, or effect the other way, or a change in a side signal; the % refers to the signal ratio); conditions: TR-UAS-bla HEK293, beta-lactamase ratio, antagonist mode, 18 h
# Summary of the method: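 TR-UAS-bla GripTite HEK293 cells in 2% charcoal/dextran FBS medium; compounds 0.59 nM to 92 uM with T3 at 0.4nM final, 18 h at 37 C. Beta-lactamase read by CCF4 fluorescence (460/530 nm); Hill fits gave IC50 and efficacy.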
# [15] = qHTS assay to identify small molecules that stimulate interleukin-8 (IL-8) secretion (AID 651758; active means well fitted activation curve with a large enough effect in the signal ratio; inconclusive means small, poorly fitted or top-dose-only effect, or effect the other way, or a change in a side signal; the % refers to the signal ratio); conditions: HTRF ratio (665/615); activation: at 92.2 µM (top of the series)
# Summary of the method: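 Compounds are added to THP-1 cells (2000 per well) and left 16 hrs at 37 C. A labeled anti-IL-8 antibody pair is then added, and IL-8 secretion is measured by time-resolved FRET after 1-3 hrs at room temperature.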
# [16] = qHTS assay for small molecule agonists of the antioxidant response element (ARE) signaling pathway measured by Nrf2-dependant transcriptional activity (AID 720636; active means well fitted curve in the direction sought with a large enough effect in the repeat runs; inconclusive means weak or mixed curves; inactive means no such curve, though single readings can be large; an effect the other way counts as inactive or inconclusive); conditions: ARE-luc HepG2, Nrf2 luciferase reporter, 16 h; series mostly up to 92.4 µM
# Summary of the method: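 We exposed ARE-luc HepG2 cells, seeded in assay medium with 1% dialyzed FBS and allowed 6 hr to adhere, to test compounds overnight (16 hr, 37 C) before measuring luciferase with ONE-Glo.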
# [17] = Cell Viability - H-4-II-E (AID 543); conditions: H-4-II-E rat hepatoma viability; series mostly up to 92.2 µM; further: nearly all actives have a fitted effect of over 35% in size
# Summary of the method: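 CellTiter-Glo luminescence (intracellular ATP) measured after 40 h compound exposure at 37 °C in H-4-II-E rat hepatoma cells seeded at 1500/well. Values are AC50s fitted with the standard Hill equation.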
# [18] = qHTS assay for small molecule agonists of the antioxidant response element (ARE) signaling pathway (AID 651741; active means well fitted activation curve with a large enough effect in the signal ratio; inconclusive means small, poorly fitted or top-dose-only effect, or effect the other way, or a change in a side signal; the % refers to the signal ratio); conditions: HepG2 ARE-bla reporter, beta-lactamase FRET ratio, 16 h; activation: at 96 µM (top of the series)
# Summary of the method: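 Stably integrated ARE-beta-lactamase reporter HepG2 cells; 16 h compound incubation, 37 C; LiveBLAzer FRET substrate 2 h at room temperature; fluorescence intensity.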
# [19] = qHTS assay for small molecule antagonists of the retinoid-related orphan receptor gamma (ROR-gamma) signaling pathway - cell viability counter screen (AID 720652; active means well fitted curve in the direction sought with a large enough effect in the repeat runs; inconclusive means weak or mixed curves; inactive means no such curve, though single readings can be large; an effect the other way counts as inactive or inconclusive;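 further: compound exposure lasted 16 hr before ATP read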); conditions: RORgamma reporter cell line viability counter screen; series mostly up to 92.2 µM
# Summary of the method: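 Cytotoxicity counter screen: intracellular ATP (CellTiter-Glo luminescence) measured in the doxycycline-induced CHO RORE-luciferase reporter line after 16 hr compound exposure at 37 C, 5% CO2.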
# Potency means the concentration at half of the fitted maximal effect; tags describe the fitted curve by direction and shape or compound fluorescence and quenching.
compound,measurement,setting,value
O=C1C(Cl)=C(Cl)C(=O)C(Cl)=C1Cl,Potency,[1],inconclusive [partial curve]
same,Potency,[2],active: 39.8 µM
same,Potency,[3],active: 15.8 µM
same,Potency,[4],"inconclusive [cytotoxic, full curve, poor fit]"
same,Potency,[5],active: 25.1 µM [inconclusive]
same,Potency,[6],"inconclusive [side channel, rising, single point]"
same,Potency,[7],"inconclusive [inhibitor, partial curve, poor fit]"
same,Potency,[8],active: 12.6 µM
same,activation,[9],inconclusive: -20.4%
same,Potency,[10],"inconclusive [side channel, rising, partial curve]"
same,Potency,[11],"inconclusive [side channel, rising, partial curve, poor fit]"
same,Potency,[12],"inconclusive [cytotoxic, side channel, partial curve, poor fit]"
same,Potency,[13],"inconclusive [inhibitor, full curve, poor fit]"
same,Potency,[14],"inconclusive [falling, partial curve]"
same,Potency,[15],"inconclusive [falling, single point]"
same,Potency,[16],"inconclusive [activator, single point]"
C=C(C)CCl,Potency,[2],"inconclusive [cytotoxic, full curve, poor fit]"
same,Potency,[3],inactive
same,Potency,[6],inactive
same,"activity, negative = inhibition",[10],inconclusive: 6.21%
same,activation,[15],inconclusive: 9.1%
Clc1ccc(C(c2ccc(Cl)cc2)C(Cl)Cl)cc1,Potency,[1],active: 45.4 µM
same,Potency,[17],"inconclusive [falling, single point]"
same,Potency,[2],"inconclusive [cytotoxic, single point]"
same,Potency,[3],active: 15.8 µM
same,Potency,[4],inactive
same,Potency,[5],active: 39.8 µM [inconclusive]
same,Potency,[6],"inconclusive [fluorescent, side channel, single point]"
same,Potency,[7],"inconclusive [inhibitor, single point]"
same,Potency,[8],"inconclusive [side channel, rising, partial curve, poor fit]"
same,Potency,[9],"inconclusive [cytotoxic, side channel, partial curve]"
same,activation,[9],inconclusive: -4.19%
same,Potency,[10],"inconclusive [inhibitor, partial curve, poor fit]"
same,"activity, negative = inhibition",[10],inconclusive: -31.9%
same,Potency,[11],"inconclusive [inhibitor, single point]"
same,Potency,[12],"inconclusive [rising, single point]"
same,activation,[12],inactive: 2.2%
same,Potency,[13],"inconclusive [inhibitor, partial curve]"
same,max response,[13],inconclusive: -32.8%
same,Potency,[18],active: 66.8 µM and active: 61.1 µM
same,activation,[15],inconclusive: -1.4%
same,Potency,[19],"inconclusive [cytotoxic, partial curve]"

# — PubChem BioAssay (NCATS)
